Patent US20190194315A1 (Novartis, published 2019)

Tests used:
[1] = biological target: T1, Human P-cadherin on the surface of tumor cell lines (human, UniProt P22223 108-829); test: cell-based or functional assay
[2] = biological target: T1, Human P-cadherin on the surface of …; test: cell-based or functional assay; remark: listed apart in the source

T1 sequence (P22223 108-829 limits assumed): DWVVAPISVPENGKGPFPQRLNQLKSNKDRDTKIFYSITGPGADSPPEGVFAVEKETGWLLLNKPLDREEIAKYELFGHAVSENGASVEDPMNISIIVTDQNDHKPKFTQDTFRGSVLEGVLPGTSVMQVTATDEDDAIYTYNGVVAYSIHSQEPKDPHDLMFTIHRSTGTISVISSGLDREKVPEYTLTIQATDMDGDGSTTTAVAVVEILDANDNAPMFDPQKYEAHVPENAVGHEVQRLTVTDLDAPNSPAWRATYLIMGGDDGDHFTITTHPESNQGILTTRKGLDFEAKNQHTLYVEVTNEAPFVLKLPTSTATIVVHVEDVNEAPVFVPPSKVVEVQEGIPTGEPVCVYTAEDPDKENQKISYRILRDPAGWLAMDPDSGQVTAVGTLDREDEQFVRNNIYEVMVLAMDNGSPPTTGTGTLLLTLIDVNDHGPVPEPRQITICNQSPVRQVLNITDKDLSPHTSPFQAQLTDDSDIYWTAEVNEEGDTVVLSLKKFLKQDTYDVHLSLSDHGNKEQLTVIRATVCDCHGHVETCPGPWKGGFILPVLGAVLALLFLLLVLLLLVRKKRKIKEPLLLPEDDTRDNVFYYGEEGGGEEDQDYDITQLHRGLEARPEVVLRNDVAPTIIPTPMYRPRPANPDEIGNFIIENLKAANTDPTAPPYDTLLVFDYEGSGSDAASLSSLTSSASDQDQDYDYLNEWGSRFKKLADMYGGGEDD

| Binder | IC50 (nM), CellTiterGlo proliferation/survival, HCC70 cells [1] | IC50 (nM), CellTiterGlo proliferation/survival, HCC1806 cells [1] | IC50 (nM), CellTiterGlo proliferation/survival, HCC1954 cells [1] | IC50 (nM), CellTiterGlo proliferation/survival, Scaber cells [1] | IC50 (nM), CellTiterGlo proliferation/survival, HCC70 cells [2] | IC50 (nM), CellTiterGlo proliferation/survival, HCC1806 cells [2] | IC50 (nM), CellTiterGlo proliferation/survival, HCC1954 cells [2] | IC50 (nM), CellTiterGlo proliferation/survival, Scaber cells [2] |
| --- | --- | --- | --- | --- | --- | --- | --- | --- |
| NOV169N31Q-152/375C-77 (antibody, human IgG1, kappa, compound 77 on engineered Cys 152 and Cys 375 (EU numbering; positions 158 and 381 of SEQ ID NO 130) by thiol-maleimide linkage; DAR 3.6 to 4.0) heavy: QVQLQQSGPGLVKPSQTLSLTCAISGDSVSSQSAAWNWIRQSPSRGLEWLGRIYYRSKWYNDYALSVKSRITINPDTSKNQFSLQLNSVTPEDTAVYYCARGEGYGREGFAIWGQGTLVTVSSASTKGPSVFPLAPSSKSTSGGTAALGCLVKDYFPCPVTVSWNSGALTSGVHTFPAVLQSSGLYSLSSVVTVPSSSLGTQTYICNVNHKPSNTKVDKRV[human IgG1 Fc with S375C (EU numbers) skipped] light: DIQMTQSPSSLSASVGDRVTITCRASQTISNTLAWYQQKPGKAPKLLIYAASNLQSGVPSRFSGSGSGTDFTLTISSLQPEDFATYYCQQYLSWFTFGQGTKVEIKRTVAAPSVFIFPPSDEQLKSGTASVVCLLNNFYPREAKVQWKVDNALQSGNSQESVTEQDSKDSTYSLSSTLTLSKADYEKHKVYACEVTHQGLSSPVTKSFNRGEC | 1.19 nM | 9.53 nM | 0.896 nM | 4.08 nM |  |  |  |  |
| NOV169N31Q-KB-22 (antibody, human IgG1, kappa, interchain disulfide cysteine is part of the ketone bridge carrying compound 22; interchain disulfide cysteines re-bridged with 1,3-dichloroacetone (ketone bridge) and oxime-linked to auristatin compound 22; average DAR 3.77) heavy: QVQLQQSGPGLVKPSQTLSLTCAISGDSVSSQSAAWNWIRQSPSRGLEWLGRIYYRSKWYNDYALSVKSRITINPDTSKNQFSLQLNSVTPEDTAVYYCARGEGYGREGFAIWGQGTLVTVSSASTKGPSVFPLAPSSKSTSGGTAALGCLVKDYFPEPVTVSWNSGALTSGVHTFPAVLQSSGLYSLSSVVTVPSSSLGTQTYICNVNHKPSNTKVDKRV[human IgG1 Fc skipped] light: DIQMTQSPSSLSASVGDRVTITCRASQTISNTLAWYQQKPGKAPKLLIYAASNLQSGVPSRFSGSGSGTDFTLTISSLQPEDFATYYCQQYLSWFTFGQGTKVEIKRTVAAPSVFIFPPSDEQLKSGTASVVCLLNNFYPREAKVQWKVDNALQSGNSQESVTEQDSKDSTYSLSSTLTLSKADYEKHKVYACEVTHQGLSSPVTKSFNRGEC |  |  |  |  | 0.399 nM | 1.09 nM | 0.0759 nM | 0.946 nM |

Read-outs that look alike come from different tables or passages of the source.
